T1: RBFOX1 RRM (Homo sapiens, UniProt Q9NWB1 109-208)
T1 sequence: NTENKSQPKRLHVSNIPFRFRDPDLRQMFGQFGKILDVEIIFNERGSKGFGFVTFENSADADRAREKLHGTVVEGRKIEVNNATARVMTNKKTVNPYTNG

B1: UCCCAAG (DNA:RNA)
RNA: GGGAGACCGGAAUUCAGAUUGUCCUCCCAAGUUAAAUCCCGUCGUAGCCACCA
DNA 1: CAATCTGAATTCCGGTCTCCC
DNA 2: TGGTGGCTACGACGGGATT
B2: AGCUUUA (DNA:RNA)
RNA: B1 RNA with U25A, C26G, C28U, A29U, A30U, G31A
DNA 1: CAATCTGAATTCCGGTCTCCC
DNA 2: TGGTGGCTACGACGGGATT
B3: UCGUGCG (DNA:RNA)
RNA: B1 RNA with C27G, C28U, A29G, A30C
DNA 1: CAATCTGAATTCCGGTCTCCC
DNA 2: TGGTGGCTACGACGGGATT
B4: CUCACUC (DNA:RNA)
RNA: B1 RNA with U25C, C26U, C28A, A29C, A30U, G31C
DNA 1: CAATCTGAATTCCGGTCTCCC
DNA 2: TGGTGGCTACGACGGGATT
B5: GAUUGAA (DNA:RNA)
RNA: B1 RNA with U25G, C26A, C27U, C28U, A29G, G31A
DNA 1: CAATCTGAATTCCGGTCTCCC
DNA 2: TGGTGGCTACGACGGGATT
B6: CAGCACG (DNA:RNA)
RNA: B1 RNA with U25C, C26A, C27G, A30C
DNA 1: CAATCTGAATTCCGGTCTCCC
DNA 2: TGGTGGCTACGACGGGATT
B7: CAUUGUU (DNA:RNA)
RNA: GGGAGACCGGAAUUCAGAUUGUCCCAUUGUUUUAAAUCCCGUCGUAGCCACCA
DNA 1: CAATCTGAATTCCGGTCTCCC
DNA 2: TGGTGGCTACGACGGGATT
B8: AGCAGGG (DNA:RNA)
RNA: B1 RNA with U25A, C26G, C28A, A29G, A30G
DNA 1: CAATCTGAATTCCGGTCTCCC
DNA 2: TGGTGGCTACGACGGGATT
B9: GGCAGGG (DNA:RNA)
RNA: B1 RNA with U25G, C26G, C28A, A29G, A30G
DNA 1: CAATCTGAATTCCGGTCTCCC
DNA 2: TGGTGGCTACGACGGGATT
B10: AGUAGAU (DNA:RNA)
RNA: B7 RNA with C25A, A26G, U28A, U30A
DNA 1: CAATCTGAATTCCGGTCTCCC
DNA 2: TGGTGGCTACGACGGGATT
B11: UCUGUAC (DNA:RNA)
RNA: B1 RNA with C27U, C28G, A29U, G31C
DNA 1: CAATCTGAATTCCGGTCTCCC
DNA 2: TGGTGGCTACGACGGGATT
B12: GGCGAGA (DNA:RNA)
RNA: B1 RNA with U25G, C26G, C28G, A30G, G31A
DNA 1: CAATCTGAATTCCGGTCTCCC
DNA 2: TGGTGGCTACGACGGGATT
B13: AUUCUCA (DNA:RNA)
RNA: B7 RNA with C25A, A26U, U28C, G29U, U30C, U31A
DNA 1: CAATCTGAATTCCGGTCTCCC
DNA 2: TGGTGGCTACGACGGGATT
B14: CAGAUAC (DNA:RNA)
RNA: B7 RNA with U27G, U28A, G29U, U30A, U31C
DNA 1: CAATCTGAATTCCGGTCTCCC
DNA 2: TGGTGGCTACGACGGGATT
B15: CGAGUAC (DNA:RNA)
RNA: B7 RNA with A26G, U27A, U28G, G29U, U30A, U31C
DNA 1: CAATCTGAATTCCGGTCTCCC
DNA 2: TGGTGGCTACGACGGGATT
B16: ACCAGCC (DNA:RNA)
RNA: B1 RNA with U25A, C28A, A29G, A30C, G31C
DNA 1: CAATCTGAATTCCGGTCTCCC
DNA 2: TGGTGGCTACGACGGGATT
B17: AAGUGCG (DNA:RNA)
RNA: B7 RNA with C25A, U27G, U30C, U31G
DNA 1: CAATCTGAATTCCGGTCTCCC
DNA 2: TGGTGGCTACGACGGGATT
B18: AGCGAGC (DNA:RNA)
RNA: B1 RNA with U25A, C26G, C28G, A30G, G31C
DNA 1: CAATCTGAATTCCGGTCTCCC
DNA 2: TGGTGGCTACGACGGGATT
B19: UUGCACC (DNA:RNA)
RNA: B1 RNA with C26U, C27G, A30C, G31C
DNA 1: CAATCTGAATTCCGGTCTCCC
DNA 2: TGGTGGCTACGACGGGATT
B20: GACAUAG (DNA:RNA)
RNA: B1 RNA with U25G, C26A, C28A, A29U
DNA 1: CAATCTGAATTCCGGTCTCCC
DNA 2: TGGTGGCTACGACGGGATT
B21: GAUAGGG (DNA:RNA)
RNA: B7 RNA with C25G, U28A, U30G, U31G
DNA 1: CAATCTGAATTCCGGTCTCCC
DNA 2: TGGTGGCTACGACGGGATT
B22: GGGUAUU (DNA:RNA)
RNA: B7 RNA with C25G, A26G, U27G, G29A
DNA 1: CAATCTGAATTCCGGTCTCCC
DNA 2: TGGTGGCTACGACGGGATT
B23: UCUGCAU (DNA:RNA)
RNA: B1 RNA with C27U, C28G, A29C, G31U
DNA 1: CAATCTGAATTCCGGTCTCCC
DNA 2: TGGTGGCTACGACGGGATT
B24: AGUCGGG (DNA:RNA)
RNA: B7 RNA with C25A, A26G, U28C, U30G, U31G
DNA 1: CAATCTGAATTCCGGTCTCCC
DNA 2: TGGTGGCTACGACGGGATT
B25: GCUGGGC (DNA:RNA)
RNA: B7 RNA with C25G, A26C, U28G, U30G, U31C
DNA 1: CAATCTGAATTCCGGTCTCCC
DNA 2: TGGTGGCTACGACGGGATT
B26: UCCGCAU (DNA:RNA)
RNA: B1 RNA with C28G, A29C, G31U
DNA 1: CAATCTGAATTCCGGTCTCCC
DNA 2: TGGTGGCTACGACGGGATT
B27: CAGAAUC (DNA:RNA)
RNA: B7 RNA with U27G, U28A, G29A, U31C
DNA 1: CAATCTGAATTCCGGTCTCCC
DNA 2: TGGTGGCTACGACGGGATT
B28: ACGAGAC (DNA:RNA)
RNA: B1 RNA with U25A, C27G, C28A, A29G, G31C
DNA 1: CAATCTGAATTCCGGTCTCCC
DNA 2: TGGTGGCTACGACGGGATT
B29: GACCGAA (DNA:RNA)
RNA: B1 RNA with U25G, C26A, A29G, G31A
DNA 1: CAATCTGAATTCCGGTCTCCC
DNA 2: TGGTGGCTACGACGGGATT
B30: AGCGAAU (DNA:RNA)
RNA: B1 RNA with U25A, C26G, C28G, G31U
DNA 1: CAATCTGAATTCCGGTCTCCC
DNA 2: TGGTGGCTACGACGGGATT
B31: GCAGGCC (DNA:RNA)
RNA: B7 RNA with C25G, A26C, U27A, U28G, U30C, U31C
DNA 1: CAATCTGAATTCCGGTCTCCC
DNA 2: TGGTGGCTACGACGGGATT

Numbering of substitutions follows the chain as printed; changes in the protein carry UniProt numbers. This is one part of the list.

This assay addresses T1, RBFOX1 RRM. Kind of assay: EMSA; HiTS-Eq, 1 nM pool, 10 min; buffer printed only for the single-RNA assays: 10 mM Tris pH 7.5, 150 mM NaCl, 3.4 mM EDTA, 0.001% NP-40, 30 C. As to conditions: tags: His6 N-terminal (pET28a); label: 5' 32P. In short, it runs like this: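 Relative association constants, normalised to the cognate motif, were derived by comparing read counts of each RNA species with those of the control reaction. The RNA sequenced was the free fraction, separated by 8% native PAGE after a 10 min equilibration in 50 µL of 1 nM 5′-radiolabelled RNA (7 randomized nucleotides) with increasing concentrations of purified wild-type or mutant RbFox RRM.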
(A gel shift assay detects complexes by their altered migration in electrophoresis.)
Regarding B1, the binding signal was 0.00478 KA relative to UGCAUGU.
On to B2, for which the binding signal is 0.00271 KA relative to UGCAUGU.
The value for B3 was 0.0219 KA relative to UGCAUGU; that for B4 was 0.00338 KA relative to UGCAUGU; that for B5 was 0.0181 KA relative to UGCAUGU.
With B6, the binding signal was 0.0261 KA relative to UGCAUGU.
The value for B7 was 0.00929 KA relative to UGCAUGU; that for B8 was 0.0126 KA relative to UGCAUGU; that for B9 was 0.00589 KA relative to UGCAUGU.
As to B10, the binding signal was 0.00846 KA relative to UGCAUGU.
For the molecule B11, the binding signal was 0.0119 KA relative to UGCAUGU.
With B12, the binding signal is 0.018 KA relative to UGCAUGU.
Turning to B13, the binding signal is 0.00336 KA relative to UGCAUGU.
As to B14, the binding signal is 0.00307 KA relative to UGCAUGU.
Take B15: the binding signal was 0.00988 KA relative to UGCAUGU.
For B16, the binding signal was 0.00429 KA relative to UGCAUGU.
As to B17, the binding signal is 0.0112 KA relative to UGCAUGU.
The value for B18 was 0.0124 KA relative to UGCAUGU; that for B19 was 0.0149 KA relative to UGCAUGU.
As to B20, the binding signal was 0.0106 KA relative to UGCAUGU.
The value for B21 was 0.0066 KA relative to UGCAUGU.
For the molecule B22, the binding signal was 0.0125 KA relative to UGCAUGU.
On to B23, for which the binding signal is 0.0205 KA relative to UGCAUGU.
B24: the binding signal was 0.00732 KA relative to UGCAUGU.
Take B25: the binding signal is 0.0189 KA relative to UGCAUGU.
On to B26, for which the binding signal is 0.012 KA relative to UGCAUGU.
For the molecule B27, the binding signal was 0.00729 KA relative to UGCAUGU.
The value for B28 was 0.00391 KA relative to UGCAUGU; that for B29 was 0.00805 KA relative to UGCAUGU.
On to B30, for which the binding signal is 0.0102 KA relative to UGCAUGU.
The value for B31 was 0.0146 KA relative to UGCAUGU.

Values taken from PMC9911399, “Two distinct binding modes provide the RNA-binding protein RbFox with extraordinary sequence specificity”.
